Results published in PubChem BioAssay (NCI).
Some structures have more than one record in an assay (separate samples or runs), and their calls can disagree.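 Single-dose data. Exposure time 48 hours. Values below 10 considered active.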 For part of its entries the source gives two or more results. The other results are left out here. An entry can have further records. This drug was run again and again over the years, at its own concentration, as given; one value stands for one run. Signs of the kind (2×) give the number of equal values in this list.

Key:
[1] = test system: MALME-3M melanoma; experiment: NCI-60 one-dose screen, 48 h (100 = growth as untreated, 0 = no growth, -100 = all killed); details: 25 µM
[2] = test system: RXF 393 renal; experiment: as above; details: 0.25 µM

SMILES: COc1cccc2c1C(=O)c1c(O)c3c(c(O)c1C2=O)C[C@@](O)(C(=O)CO)C[C@@H]3OC1CC(N)C(O)C(C)O1 (stereo not given in full)
- growth ([1]; runs of 1995): active: -89.4, -98.7, -92.1, -77.5, -96.1, -56.3, -93.7, -19, -67.8, -90.1, -99.3, -95.7, -50.7, -100 (2×), -96.3, -86.6, -68, -98.9, -98.2, -41, -94.7, -95.9, -69.5, -74.9, -72.3, -82, -54.1, -90, -91.2, -66, -88.1, -85.4, -86.4, -82.2, -71.7, -98.4, -61, -74.7, -76.2%
- growth ([1]; runs of 1996): active: -78.9, -75.9, -86.2, -69.6, -51.7, -92.5, -41.4, -78.3, -81.3, -55.2, -46.5, -92.4, -69.3, -91.2 (2×), -58.5, -76.5 (2×), -1.35, -58.6, -81, -95.3, -68.5, -96.3, -76.4, -83.4, -83.5, -70.9, -63.9, -90.3, -98.1, -65, -52.2, -85.2, 0.658, -97.7, -96.1, -77, -79.7% and inactive: 79.7%
- growth ([1]; runs of 1997): active: -54.1, -81.1, -93.7 (2×), -93.1, -91.5, -58.2, -59.1, -94.5, -44, -84.2, -80.6, -92.6, -91.1, -64.1, -78.6, -97.7, -69.7, -30.6, -83.6, -89.7, -92.5, -64.5, -94, -88.2, -87.7, -94.4, -69.6, -43.7, -96.9 (2×), -100, -95.9, -94.9, -90%
- growth ([1]; runs of 1998): active: -43.8, -97.7 (2×), -94.3, -53, -96, -91.6, -93.4, -81.3, -65.2, -28.9, -61.2, -70.6, -80.5, -63.8, -93.7, -61.3%
- growth ([1]; runs of 1999): active: -99.2, -89.8, -75.6, -98.6, -84.1, -100, -85.9, -71.4%
- growth ([1]; runs of 2000): active: -10.7%, -88.7%
- growth ([2]; runs of 2006): inactive: 10.9%, 37.3%
- growth ([2]; runs of 2007): inactive: 45.8, 38.4, 53.8, 39.8, 56.2, 10.4, 31, 47.7, 42.3, 12.5, 42.6, 52.9, 72.1, 20.8, 37.9, 35.5, 80.2, 90.2, 50.7, 33.2, 78.1, 41.5, 70, 59.8, 78.4, 35.7, 40.3, 14.8, 77.5, 56.1, 55.9% and active: -21.5%
- growth ([2]; runs of 2008): inactive: 61.2, 38.6, 16.5, 48.6, 54.4 (2×), 45.6, 66, 43, 37.8, 50.3, 33.2 (2×), 57.2, 63.3, 32.7, 19.2, 19.4, 26.6, 22.7, 42.7, 63.1, 22.1, 20.4 (2×), 21.8, 44, 38.4, 34.2, 40.2, 31.5, 55.5, 70.6, 50.4, 51.6, 63.9, 52.1, 30.6, 48.1, 64% and active: -16, -36.6, -26, -5.51, -22.6, -12.1, 7.97, -3.91, -2.04, 8.74, 8.24, 9.07%
- growth ([2]; runs of 2009): inactive: 41.9, 55.3 (2×), 85.1, 43.6 (2×), 36.1, 81.5, 204, 108, 79.9, 64.1, 53.4, 79.3, 67.2, 63.3, 44.3, 54.1, 61.8, 58.9, 50.7, 61.1, 54.8, 73.1, 59.1, 55.2 (2×), 46.7, 64.2, 49.1, 54.5, 62.2, 69 (2×), 73.9, 46.3, 58.4, 28.7, 31.9, 35.4, 19.2, 67.8, 69.6, 37.2, 50.4, 45.2, 49 (2×), 55.5, 31.1, 48.3, 41.2, 26.8, 45.4, 31.6, 25.4, 27.9, 48.7, 66, 45.7, 56.9, 29.5, 59.8, 14.4, 53.2, 43.7, 48.6, 14.6, 19.8% and active: 6.35%, -5.95%
- growth ([2]; runs of 2010): inactive: 66.9, 64.4, 71.6, 41.6, 72.9, 60.7, 59.5, 74.1 (2×), 54.3 (2×), 37.9, 57.2, 57.5 (2×), 40.3, 42.4, 41.5, 51.5, 49.5, 68.8, 70, 29, 53.4, 57.7, 28.6, 59.2, 43.3, 38.2, 56.8, 60.9, 69.9, 78.9, 55, 58.1, 66, 48.3, 66.7, 56.3, 65.5, 62.6, 65, 77.4, 65.6, 62.4, 71.5, 69.2, 71, 65.2, 54.1, 51.7, 55.3, 55.7, 57.6% and active: -12.3%
- growth ([2]; runs of 2011): inactive: 63.7, 54.2 (2×), 48.3, 62.6, 48.2, 39.1, 47.8 (2×), 58.8, 44.5, 58.9, 75.6, 56, 67.6, 75.3, 68.9, 64.9, 58.4, 61.1, 64.7, 59.5, 64.6, 73.9, 63.8, 79.5, 59, 66.5, 29.6, 58.5, 64.3, 57.9, 55.4, 48, 46.2, 49.3, 43.4, 61.8, 59.1, 57.4, 58.1, 51.3, 44.7, 52.5, 67.4, 55.9, 35.8, 58.3, 46.9, 62.7, 57, 65.8, 42.7, 51.8%
- growth ([2]; runs of 2012): inactive: 56.2, 40.8, 35.8, 52.5, 64.9 (2×), 64.8 (2×), 57.5, 71.3, 53.4, 32.9, 54.9, 64, 46.4, 25.2, 33.8 (2×), 44.9, 42.8, 50.2 (2×), 54.7, 50.6, 35, 46.6, 62.2, 55.1, 66.1, 60.9 (2×), 50.5, 59.8, 61, 60.8, 75.2, 67.2, 63.7, 59.2, 31, 47.7, 63.8, 49.2, 43.3, 55.4, 35.6, 71.7, 72.7, 77.1, 82.7 (2×), 69, 83.6, 95.1, 73.7, 86.3, 89, 84.3, 80.3, 88, 48.3, 52.4, 49.3, 40.7, 57.4, 67, 59.4, 59.3, 56.7, 67.1, 59, 65.3%
- growth ([2]; runs of 2013): inactive: 53.9, 60.5, 56.8, 50.3 (2×), 58.8, 60.4, 68.6, 61.4, 59.5 (2×), 59.1, 58, 63.5, 51.3, 67.2, 62.9, 74.9, 77.2, 69.7, 76.9 (2×), 72.9, 75.3, 65.5, 69.5 (2×), 76, 72, 71, 65.1, 72.3, 73, 66.1, 67.8, 63.3, 51.5, 64.6, 57.9, 57, 67.3, 62.6, 52.5, 73.8, 72.5, 74, 77.6, 79.1, 76.7, 78.3, 78.9, 80.7, 74.3, 76.6, 84.2, 78.4, 72.8, 68.2, 77.7, 60.9, 50.2, 46.6, 64.4, 45.7, 61.7, 65.6%
- growth ([2]; runs of 2014): inactive: 66.4, 65.2 (2×), 66.8, 54.1 (2×), 38.9, 40.9, 47.6, 20.8, 42.6, 45.6 (2×), 76.2, 63.4 (2×), 72.6, 68.8, 73.1, 63.9, 78.4, 82.9, 80.3, 61.3, 71.6, 72.1, 68.1, 43.6, 61.7, 65.8, 44.2, 51.4, 43.2 (2×), 41.4, 35.7, 53.9 (2×), 43.8, 49.4, 45.9, 37.9, 43.5, 46.7 (2×), 50.7, 63 (2×), 61, 36, 69.9, 55.1, 38.2, 61.9 (2×), 45.7 (2×), 55, 41.2, 47.1, 49.7, 59, 71.4, 70.5, 75.3, 70, 63.1, 71.7, 79.4, 72.3, 75.1, 76.5, 67.3, 76.9, 69.4%
